# Test results: the supplement of paper PMC5919970
# Several values for one entry are separate records, joined by “and”; a condition that tells them apart may be missing. Identical values can stand only once. Counter-ions that a name gives are not always drawn. In all, about 2,000 compounds were measured (“fractional viability relative to vehicle”: median about 0.92, lowest 2% from about 0.11 on). Some of the results follow.
# Tested on: TYKNU
# Assay: fractional viability relative to vehicle; TYKNU is a high-grade serous ovarian cancer line; higher = less growth inhibition
# Conditions: 72 h, genotype: OPA1 knockout (sgOPA1 #2)
# Summary of the method: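 Drug treatment lasted 72 h, with cells grown at 37 °C in 5% CO2 in RPMI 1640 supplemented with 10% FBS. Beforehand, TYKNU control cells or their lentiCRISPRv2 knockout derivatives had been seeded at 500 cells per well into drug-stamped 384-well plates carrying a ~2100-compound library at 2 or 10 μM, in duplicate. Viability came from Cell Titer Glo luminescence, with averaged duplicate treatment wells normalised to duplicate control wells in the same plate position.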
structure (smiles),measurement,setting,value
COc1c(C)c(C(=O)c2ccc(N)c(C(=O)O)c2)n2ccccc12,fractional viability,2uM,0.889
same,fractional viability,10uM,1.04
COc1ccc2c(c1)CCC1C2CCC2(C)C(NCCCCCCN3C(=O)C=CC3=O)CCC12 (configuration not stated),fractional viability,2uM,0.747
same,fractional viability,10uM,0.738
COc1ccc(-c2ccc3c(N4CCOC[C@@H]4C)nc(N4CCOC[C@@H]4C)nc3n2)cc1CO,fractional viability,2uM,0.325
same,fractional viability,10uM,0.376
CC(C)C[C@H](NP(=O)(O)O[C@@H]1O[C@@H](C)[C@H](O)[C@@H](O)[C@H]1O)C(=O)N[C@@H](Cc1c[nH]c2ccccc12)C(=O)O [Phosphoramidon Disodium Salt],fractional viability,2uM,0.899
same,fractional viability,10uM,0.879
O=C(NC[C@H]1CN(c2ccc(N3CCOCC3=O)cc2)C(=O)O1)c1ccc(Cl)s1 [Rivaroxaban],fractional viability,2uM,1.11
same,fractional viability,10uM,1.04
C[C@@H]1C[C@H]2[C@@H]3C[C@H](F)C4=CC(=O)C=C[C@]4(C)[C@@]3(F)[C@@H](O)C[C@]2(C)[C@@]1(O)C(=O)CO [Flumethasone],fractional viability,2uM,1.1
same,fractional viability,10uM,0.852
COC(=O)c1ccc2c(c1)nc(NC(=O)c1ccccc1)n2CCCc1ccccc1,fractional viability,2uM,0.792
same,fractional viability,10uM,0.709
CN1CCN(Cc2ccc(Nc3ncc(Cl)c(Nc4ccccc4S(=O)(=O)N(C)C)n3)cc2)CC1,fractional viability,2uM,0.451
same,fractional viability,10uM,0.421
c1ccc(NCc2ccc(CNc3ccccn3)cc2)nc1,fractional viability,2uM,1.07
same,fractional viability,10uM,0.852
Cc1nnc(C(=O)NC(C)(C)c2nc(C(=O)NCc3ccc(F)cc3)c(O)c(=O)n2C)o1 [Raltegravir (MK-0518)],fractional viability,2uM,1.12
same,fractional viability,10uM,0.874
N=C(NCCCCCCNC(=N)NC(=N)Nc1ccc(Cl)cc1)NC(=N)Nc1ccc(Cl)cc1 [Chlorhexidine HCl],fractional viability,2uM,0.986
same,fractional viability,10uM,0.359
COc1c2occc2cc2ccc(=O)oc12 [Methoxsalen],fractional viability,2uM,1.24
same,fractional viability,10uM,1.04
CC(C)CC(N)=O [Isovaleramide],fractional viability,2uM,0.947
same,fractional viability,10uM,1.04
CN1CCN(C2=Nc3ccccc3Oc3ccc(Cl)cc32)CC1 [Loxapine Succinate],fractional viability,2uM,1.16
same,fractional viability,10uM,0.852
CCOC(=O)[C@@H](N)Cc1ccc(-c2cc(O[C@H](c3ccc(Cl)cc3-n3ccc(C)n3)C(F)(F)F)nc(N)n2)cc1 [Telotristat Etiprate (LX 1606 Hippurate)],fractional viability,2uM,0.935
same,fractional viability,10uM,0.335
O=C(Nc1cccc(Cl)c1)c1ccccn1,fractional viability,2uM,1.19
same,fractional viability,10uM,1.02
Clc1ccc(CCC(Cn2ccnc2)Sc2c(Cl)cccc2Cl)cc1 (configuration not stated) [Butoconazole nitrate],fractional viability,2uM,1.09
same,fractional viability,10uM,0.872
C[C@@]1(C(=O)Nc2ccc(F)nc2)CCCN1c1nc(Nc2cc(C3CC3)n[nH]2)c2cccn2n1,fractional viability,2uM,0.877
same,fractional viability,10uM,0.499
CN(C)C(=O)Nc1cccc(-c2ccc(N(C)C)cc2)c1 [Atglistatin],fractional viability,2uM,0.904
same,fractional viability,10uM,0.794
N#Cc1ccc(C(c2ccc(C#N)cc2)n2cncn2)cc1 [Letrozole],fractional viability,2uM,1.15
same,fractional viability,10uM,0.978
C=C1CC[C@H](O)C/C1=C/C=C1\CCC[C@]2(C)[C@@H]([C@H](C)CCCC(C)C)CC[C@@H]12 [Vitamin D3],fractional viability,2uM,1.06
same,fractional viability,10uM,0.555
CC(C)(O)[C@H]1CC[C@@](C)([C@H]2[C@@H](O)C[C@@]3(C)[C@@H]4C[C@H](O[C@@H]5O[C@H](CO)[C@@H](O)[C@H](O)[C@H]5O)[C@H]5C(C)(C)[C@@H](O[C@@H]6OC[C@@H](O)[C@H](O)[C@H]6O)CC[C@@]56C[C@@]46CC[C@]23C)O1 [Astragaloside A],fractional viability,2uM,0.751
same,fractional viability,10uM,0.76
CC(=O)S[C@@H]1CC2=CC(=O)CC[C@]2(C)[C@H]2CC[C@@]3(C)[C@@H](CC[C@@]34CCC(=O)O4)[C@H]12 [Spironolactone],fractional viability,2uM,0.979
same,fractional viability,10uM,0.899
C#Cc1cccc(Nc2ncnc3cc(OC)c(OCCCCCCC(=O)NO)cc23)c1,fractional viability,2uM,0.404
same,fractional viability,10uM,0.212
CCCc1cc(C(N)=S)ccn1 [Protionamide],fractional viability,2uM,1.17
same,fractional viability,10uM,0.922
COc1cccc2c1c(O)c(C(=O)N(C)c1ccc(C(F)(F)F)cc1)c(=O)n2C [Tasquinimod],fractional viability,2uM,0.878
same,fractional viability,10uM,0.86
COc1cc2c(Nc3ccc(NC(=O)c4ccccc4)cc3)ncnc2cc1OCCCN1CCOCC1,fractional viability,2uM,1.02
same,fractional viability,10uM,0.584
CC(=O)Nc1ccc(C(=O)Nc2ccccc2N)cc1 [CI994 (Tacedinaline)],fractional viability,2uM,0.755
same,fractional viability,10uM,0.434
O=C(O)[C@]1(Cc2cccc(Nc3nccs3)n2)CC[C@@H](Oc2cccc(Cl)c2F)CC1,fractional viability,2uM,0.727
same,fractional viability,10uM,0.623
CN1CCC(=C2c3ccccc3C=Cc3ccccc32)CC1 [Cyproheptadine HCl],fractional viability,2uM,0.991
same,fractional viability,10uM,0.873
CO[C@H]1/C=C/O[C@@]2(C)Oc3c(C)c(O)c4c(O)c(c(/C=N/N5CCN(C6CCCC6)CC5)c(O)c4c3C2=O)NC(=O)/C(C)=C\C=C\[C@H](C)[C@H](O)[C@@H](C)[C@@H](O)[C@@H](C)[C@H](OC(C)=O)[C@@H]1C [Rifapentine],fractional viability,2uM,1.04
same,fractional viability,10uM,0.781
N=C(N)NC(=N)NCCc1ccccc1 [Phenformin HCl],fractional viability,2uM,1.01
same,fractional viability,10uM,0.94
C[C@H]1O[C@H](O[C@H]2[C@H](O)[C@@H](O)[C@@H](O[C@H]3[C@H](O)[C@@H](O)C(O)O[C@@H]3CO)O[C@@H]2CO)[C@H](O)[C@@H](O)[C@@H]1N[C@H]1C=C(CO)[C@@H](O)[C@H](O)[C@H]1O (some centres not stated) [Acarbose],fractional viability,2uM,1.23
same,fractional viability,10uM,0.948
C[C@@H](Oc1ccc2[nH]nc(/C=C/c3cnn(CCO)c3)c2c1)c1c(Cl)cncc1Cl,fractional viability,2uM,0.589
same,fractional viability,10uM,0.277
CC[C@H]1[C@@H](O)[C@@H]2[C@H](CC[C@]3(C)[C@@H]([C@H](C)CCC(=O)O)CC[C@@H]23)[C@@]2(C)CC[C@@H](O)C[C@@H]12 [Obeticholic Acid],fractional viability,2uM,0.836
same,fractional viability,10uM,0.916
CNC1CCCN(c2c(F)cc3c(=O)c(C(=O)O)cn(C4CC4)c3c2OC)C1 (configuration not stated) [Balofloxacin],fractional viability,2uM,1
same,fractional viability,10uM,1.04
O=C(NC[C@H](O)CN1CCc2ccccc2C1)c1cc(NC2COC2)ncn1,fractional viability,2uM,0.875
same,fractional viability,10uM,0.845
COc1cc2ncnc(Sc3nnc(C)s3)c2cc1OC,fractional viability,2uM,0.789
same,fractional viability,10uM,0.16
O=C1NC(=O)C(c2cnc3ccccn23)=C1c1cn2c3c(cc(F)cc13)CN(C(=O)N1CCCCC1)CC2,fractional viability,2uM,0.58
same,fractional viability,10uM,0.68
Cc1ccc(S(=O)(=O)c2ccc([N+](=O)[O-])o2)cc1,fractional viability,2uM,0.0667
same,fractional viability,10uM,0.0291
NCCc1c[nH]cn1 [Histamine 2HCl],fractional viability,2uM,0.923
same,fractional viability,10uM,0.835
OC(Cn1cncn1)(Cn1cncn1)c1ccc(F)cc1F [Fluconazole],fractional viability,2uM,1.04
same,fractional viability,10uM,0.921
CC(=O)Nc1cccc(-n2c(=O)n(C3CC3)c(=O)c3c(Nc4ccc(I)cc4F)n(C)c(=O)c(C)c32)c1,fractional viability,2uM,0.379
same,fractional viability,10uM,0.38
C[C@@H](NCCCc1cccc(C(F)(F)F)c1)c1cccc2ccccc12 [Cinacalcet HCl],fractional viability,2uM,1.04
same,fractional viability,10uM,0.83
Nc1[nH]cnc2ncnc1-2 [Adenine HCl],fractional viability,2uM,0.979
same,fractional viability,10uM,0.867
CC(C)(C)c1cnc(CSc2cnc(NC(=O)C3CCNCC3)s2)o1,fractional viability,2uM,0.573
same,fractional viability,10uM,0.517
CC(C)c1c(C(=O)Nc2ccccc2)c(-c2ccccc2)c(-c2ccc(F)cc2)n1CC[C@@H](O)C[C@@H](O)CC(=O)O [Atorvastatin Calcium],fractional viability,2uM,0.968
same,fractional viability,10uM,0.649
CCN[C@H]1CN(CCCOC)S(=O)(=O)c2sc(S(N)(=O)=O)cc21 [Brinzolamide],fractional viability,2uM,0.978
same,fractional viability,10uM,0.803
COC(=O)Nc1nc2cc(C(=O)c3cccs3)ccc2[nH]1 [Nocodazole],fractional viability,2uM,0.48
same,fractional viability,10uM,0.479
COc1cc(Br)c(Nc2nc(-c3c(C)nc4ncccn34)cs2)c(Br)c1,fractional viability,2uM,0.404 and 0.408
same,fractional viability,10uM,0.319 and 0.35
COc1cc2c(Oc3ccc4[nH]c(C)cc4c3F)ncnc2cc1OCCCN1CCCC1 [Cediranib (AZD2171)],fractional viability,2uM,1.1
same,fractional viability,10uM,0.181
CC(=O)O[C@]1(C(C)=O)CC[C@H]2[C@@H]3C[C@H](C)C4=CC(=O)CC[C@]4(C)[C@H]3CC[C@@]21C [Medroxyprogesterone acetate],fractional viability,2uM,1.13
same,fractional viability,10uM,0.808
O=C(O)c1cc(-c2ccccc2)nc2ccccc12 [Cinchophen],fractional viability,2uM,0.976
same,fractional viability,10uM,0.926
Nc1nc2n[nH]nc2c(=O)[nH]1 [Azaguanine-8],fractional viability,2uM,1.51
same,fractional viability,10uM,0.999
CN(C)c1nc(N(C)C)nc(N(C)C)n1 [Altretamine],fractional viability,2uM,1.05
same,fractional viability,10uM,1.06
CCCNCC(O)COc1ccccc1C(=O)CCc1ccccc1 (configuration not stated) [Propafenone HCl],fractional viability,2uM,1.01
same,fractional viability,10uM,0.869
NC(=O)C(c1ccccc1)(c1ccccc1)[C@@H]1CCN(CCc2ccc3c(c2)CCO3)C1 [Darifenacin HBr],fractional viability,2uM,0.802
same,fractional viability,10uM,0.704
O=C1c2ccc(Nc3ccc(F)cc3F)cc2CCc2ccc(OC[C@H](O)CO)cc21 [Skepinone-L],fractional viability,2uM,1.19
same,fractional viability,10uM,0.679
COc1ccccc1OCC(O)CN1CCN(CC(=O)Nc2c(C)cccc2C)CC1 (configuration not stated) [Ranolazine 2HCl],fractional viability,2uM,1.13
same,fractional viability,10uM,1.03
COc1ccccc1OCC(O)CN1CCN(CC(=O)Nc2c(C)cccc2C)CC1 (configuration not stated) [Ranolazine],fractional viability,2uM,1.09
same,fractional viability,10uM,0.926
CN(C)C(=S)NN=C(c1ccccn1)c1ccccn1,fractional viability,2uM,0.572
same,fractional viability,10uM,0.755
COc1cc([C@@H]2c3cc4c(cc3[C@@H](O[C@@H]3O[C@@H]5CO[C@@H](C)O[C@H]5[C@H](O)[C@H]3O)[C@H]3COC(=O)[C@H]23)OCO4)cc(OC)c1O [Etoposide],fractional viability,2uM,0.88
same,fractional viability,10uM,0.607
C[C@H]1C[C@@H]2[C@H]([C@@H](O)C[C@@]3(C)[C@H]2CC[C@]3(O)C(=O)CO)[C@@]2(C)C=CC(=O)C=C12 [Methylprednisolone],fractional viability,2uM,1.1
same,fractional viability,10uM,0.956
CC(=O)Nc1nc(C)c(-c2ccc(Cl)c(S(=O)(=O)NCCO)c2)s1,fractional viability,2uM,0.961
same,fractional viability,10uM,0.668
OC[C@H]1O[C@@H](Oc2cc(O)cc(/C=C/c3ccc(O)cc3)c2)[C@H](O)[C@@H](O)[C@@H]1O [Polydatin],fractional viability,2uM,1.09
same,fractional viability,10uM,0.918
COc1ccc(C2CNC(=O)C2)cc1OC1CCCC1 (configuration not stated) [Rolipram],fractional viability,2uM,1.28
same,fractional viability,10uM,1.09
